{"source": "PubChem BioAssay AID2107", "about": "(National Center for Advancing Translational Sciences (NCATS), 2009)", "note": "In all, about 240,000 compounds went through this assay and about 20 (0.008%) were called active. Inconclusive means that the source gave no clear call. Such entries were picked first, then a sample of the others. Calls come from the whole dose curve; as a rule, active = well fitted inhibition curve with a large enough effect; inconclusive = small, poorly fitted or top-dose-only effect, or effect the other way; inactive = flat fitted curve, though single readings scatter. Potencies of inconclusive entries are left out as doubtful fits. Potency is the fitted concentration of half-maximal effect; tags give direction and shape of the fitted curve.", "data": [{"target": "Alpha-galactosidase A (Homo sapiens) (UniProt P06280)", "sequence (P06280 whole entry, looked up)": "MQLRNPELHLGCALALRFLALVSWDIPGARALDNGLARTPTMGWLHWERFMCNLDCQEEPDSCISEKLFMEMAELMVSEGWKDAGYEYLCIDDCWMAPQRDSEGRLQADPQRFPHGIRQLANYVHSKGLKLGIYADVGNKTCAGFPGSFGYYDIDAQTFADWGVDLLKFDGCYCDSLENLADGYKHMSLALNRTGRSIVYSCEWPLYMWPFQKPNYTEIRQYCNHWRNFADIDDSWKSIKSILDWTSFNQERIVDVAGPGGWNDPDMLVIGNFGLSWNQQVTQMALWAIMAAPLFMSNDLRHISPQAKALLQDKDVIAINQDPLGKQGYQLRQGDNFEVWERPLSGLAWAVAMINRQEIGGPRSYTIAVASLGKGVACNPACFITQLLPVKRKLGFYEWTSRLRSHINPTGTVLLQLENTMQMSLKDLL", "experiment": "qHTS Assay for Inhibitors and Activators of Human alpha-Galactosidase From Spleen Homogenate", "conditions": "4MU-alpha-Gal fluorescence, 40 min; series mostly up to 80 µM", "procedure,_shortened": "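Inhibition or activation of alpha-galactosidase in human spleen homogenate is scored by 4-MU fluorescence after 40 min at 37C, pH 5.0, with 1 mM substrate. AC50s come from concentration-response fitted to the Hill equation.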", "values": [{"smiles": "O=C(/C=C/c1cc([N+](=O)[O-])ccc1OC(F)F)Nc1ccc(OC(F)F)cc1", "Potency": "inconclusive [activator, single point]"}, {"smiles": "COC(=O)c1ccc2c(=O)n(CCCCCC(=O)NCCNC(C)=O)c(=O)[nH]c2c1", "Potency": "inconclusive [activator, partial curve]"}, {"smiles": "COc1ncc2nc(-c3cc(F)cc(F)c3)c(=O)n(CCC#N)c2n1", "Potency": "inactive"}, {"smiles": "Cc1cc(-c2ccccc2)nc2cc(C(=O)NCc3ccco3)nn12", "Potency": "inactive"}, {"smiles": "CC1Cc2ccccc2N1c1ncnc2c1nnn2Cc1ccccc1", "note": "(stereo not given)", "Potency": "inconclusive [activator, single point]"}, {"smiles": "CN1CCN(c2ncc3nc(-c4ccccc4)c(=O)n(C)c3n2)CC1", "Potency": "inconclusive [activator, partial curve]"}, {"smiles": "COc1ccc(OCC(=O)NC(=S)N2CCCc3ccccc32)cc1", "Potency": "inactive"}, {"smiles": "Cn1cc(-c2ccccc2)cc(C#N)c1=O", "Potency": "inconclusive [activator, single point]"}, {"smiles": "O=C(C1CCC1)N1CCc2cc(S(=O)(=O)Nc3ccc4c(c3)OCCO4)ccc21", "Potency": "inactive"}, {"smiles": "Cc1cc(-c2ccccc2)n2ncc(C#N)c2n1", "Potency": "inconclusive [activator, partial curve, poor fit]"}, {"smiles": "COc1ccccc1-n1c(=O)[nH]c2c(C(N)=O)nc(-c3cccnc3)nc21", "Potency": "inconclusive [activator, single point]"}, {"smiles": "N#Cc1nc(-c2cccs2)oc1NCC1CCCO1", "note": "(stereo not given)", "Potency": "inconclusive [activator, single point]"}, {"smiles": "CN(C)c1ccc(-c2cc(NCc3cccnc3)ncn2)cc1", "Potency": "inconclusive [activator, single point]"}, {"smiles": "CC(=O)N1CCCc2cc(S(=O)(=O)N3CCC(C)CC3)ccc21", "Potency": "inactive"}, {"smiles": "COc1cc(-c2cccs2)cc(=O)c2c(C)oc(C)c12", "Potency": "inactive"}, {"smiles": "O=C(Nc1ccccc1F)c1ccc(-n2cncn2)nc1", "Potency": "inconclusive [inhibitor, partial curve]"}, {"smiles": "CC(C)(C)OC(=O)N1CCC(C(=O)N2CCCCCC2)CC1", "Potency": "inactive"}, {"smiles": "Cc1cccc(N(C(=O)Cn2nnc3ccccc32)C(C(=O)NC(C)(C)C)c2ccsc2)c1", "note": "(stereo not given)", "Potency": "inactive"}, {"smiles": "O=C1CC(Nc2ccccc2)C(=O)N1CCc1ccccc1", "note": "(stereo not given)", "Potency": "inactive"}, {"smiles": "COc1ccc(NC(=O)CSc2nnc(-c3cccs3)n2C)cc1OC", "Potency": "inconclusive [activator, partial curve]"}, {"smiles": "O=C(CN1C(=O)c2cccc3cccc1c23)Nc1cccnc1", "Potency": "inconclusive [activator, full curve, poor fit]"}, {"smiles": "CCC(C)(C)n1nnnc1C(C(C)C)N(CCN1CCOCC1)Cc1cc2cccc(C)c2[nH]c1=O", "note": "(stereo not given)", "Potency": "inactive"}, {"smiles": "COc1ccc(/C=C(\\C#N)C(=O)OCC(=O)NC2CC2)cc1", "Potency": "inactive"}, {"smiles": "COc1ccc(CCNC(=O)c2sc(=S)n(C)c2N)cc1", "Potency": "inconclusive [inhibitor, single point]"}, {"smiles": "COc1ccc(C(=O)COC(=O)C2CCN(S(=O)(=O)c3cccc4cccnc34)CC2)cc1", "Potency": "inactive"}, {"smiles": "CCC(=O)N1N=C(c2ccc(NS(C)(=O)=O)cc2)CC1c1ccc(C)cc1", "note": "(stereo not given)", "Potency": "inconclusive [activator, partial curve]"}, {"smiles": "COc1ccc(C2C(C(=O)N3CCOCC3)=C(C)NC3=C2C(=O)CC(C)(C)C3)c(OC)c1", "note": "(stereo not given)", "Potency": "inconclusive [activator, partial curve]"}, {"smiles": "COc1ccc(-n2c(N)c(C(=O)NCc3ccco3)c3nc4ccccc4nc32)cc1", "Potency": "inconclusive [activator, partial curve]"}, {"smiles": "Cc1ccccc1NC(=O)CSC(N)=O", "Potency": "inactive"}, {"smiles": "COc1ccc(N=c2oc3cc(O)ccc3cc2C(=O)NCC2CCCO2)cc1", "note": "(stereo not given)", "Potency": "inconclusive [activator, partial curve]"}, {"smiles": "Cc1onc(-c2ccccc2Cl)c1C(=O)Nc1cccc(-c2nc3ncccn3c2C)c1", "Potency": "inconclusive [activator, partial curve]"}, {"smiles": "COC(=O)C1CCN(C(=O)c2cc(=O)[nH]c3ccccc23)CC1", "Potency": "inconclusive [activator, single point]"}, {"smiles": "CC1(C)CN(c2ccc(-c3ccnc4ncnn34)cc2)C1=O", "Potency": "inconclusive [activator, partial curve]"}, {"smiles": "COc1cccc(C(=O)Nc2cccc(-c3nnc(-c4ccco4)o3)c2)c1", "Potency": "inactive"}, {"smiles": "COC(=O)c1ccc(NC(=O)CCN2CCCCC2)cc1", "Potency": "inconclusive [inhibitor, single point]"}, {"smiles": "Cc1nnc(SCC(=O)Nc2ccc(N3CCOCC3)cc2)n1-c1ccccc1", "Potency": "inactive"}, {"smiles": "O=C(c1cc2c(=O)n3ccccc3nc2s1)N1CCc2ccccc2C1", "Potency": "inconclusive [activator, partial curve]"}, {"smiles": "O=S(=O)(Nc1ncccn1)c1ccc(NC(=S)NCc2ccco2)cc1", "Potency": "inconclusive [inhibitor, single point]"}, {"smiles": "COc1cc(OC)cc(-c2nnc(Nc3nc4c(F)cccc4s3)o2)c1", "Potency": "inactive"}, {"smiles": "N#Cc1cc2c(=O)n3ccccc3nc2n(-c2ccccc2Cl)c1=O", "Potency": "inconclusive [activator, partial curve]"}, {"smiles": "CC[n+]1c(/C=C/N(C)c2ccccc2)n(-c2ccccc2)c2ccc(-c3nc4ccccc4s3)cc21", "Potency": "inconclusive [activator, single point]"}, {"smiles": "CCOC(=O)N1CCN(C(=O)c2cn(CCOC)c(=O)c3c2c2ccccc2n3C)CC1", "Potency": "inconclusive [activator, partial curve]"}, {"smiles": "CCS(=O)(=O)c1cc([N+](=O)[O-])c(Sc2ccccc2N)s1", "Potency": "inconclusive [inhibitor, full curve, poor fit]"}, {"smiles": "CCC(C)(C)n1nnnc1C(c1cc2cc(OC)c(OC)cc2[nH]c1=O)N1CCc2ccccc21", "note": "(stereo not given)", "Potency": "inconclusive [inhibitor, single point]"}, {"smiles": "Cc1c(O)ccc2c(CN3CCN(CCO)CC3)cc(=O)oc12", "Potency": "inconclusive [activator, partial curve]"}]}]}
